Experimental findings from patent US11000038B2, “Pyridone compounds and agricultural and horticultural fungicides containing the same as active ingredients” (priority 2017, dated 2021) are described below.

For experiment [1], the system named is wheat brown rust fungi (Puccinia recondita). In words: Test Example E: wheat brown rust, spray treatment of wheat plants. The note with it: spray treatment of wheat plants; control value=100{1-(n/3)}. It counts as in vivo.
In experiment [2] the test system is grape downy mildew fungus (Plasmopara viticola). The experiment in a line: Test Example G: grape downy mildew, spray treatment of grape plants. The note with it: 250 ppm spray, 2.5 ml/pot, grape Neomuscat; 7 to 10 days from inoculation.
Experiment [3] concerns gray mold fungi (Botrytis cinerea). The experiment in a line: Test Example B: tomato gray mold, spray treatment of tomato plants. The note with it: spray treatment of tomato plants; control value=100{1-(n/3)}.
Experiment [4] concerns cabbage Alternaria sooty spot fungi (Alternaia brassicicola). The experiment in a line: Test Example C: cabbage Alternaria sooty spot, spray treatment of cabbage plants. It counts as in vivo. The note with it: spray treatment of cabbage plants; control value=100{1-(n/3)}. From the text: [Test Example C] Cabbage Alternaria Sooty Spot
Test plants (cabbage variety: Shikidori) were cultivated until the cotyledons extended after the sowing of seeds.
<Control Value> Control value=100{1−(n/3)}

In experiment [5] the test system is barley powdery mildew fungi (Blumeria graminis f. sp. hordei). The experiment in a line: Test Example D: barley powdery mildew, spray treatment of barley plants. Conditions: spray treatment of barley plants; control value=100{1-(n/3)}.

Consider `Cc1ccccc1-n1cc(Br)c(=O)c(Cl)c1-c1c(F)cccc1F` [Compound 111], for which the “Test E control value class (wheat brown rust)” value (shortened to “Test E control value class”) in experiment [1] was “H (H shows the control value of more than 50%)”. The “Test G control value class (grape downy mildew)” value (from here on “Test G control value class”) in experiment [2] was “L (L shows the control value of 50% or less)”. In addition, the “Test B control value class (tomato gray mold)” value (“Test B control value class” for short) in experiment [3] is “H (H shows the control value of more than 50%)”. In addition, the “Test C control value class (cabbage Alternaria sooty spot)” value (“Test C control value class” for short) in experiment [4] is listed as “H (H shows the control value of more than 50%)”. Besides, in experiment [5], the “Test D control value class (barley powdery mildew)” value (“Test D control value class” for short) was “L (L shows the control value of 50% or less)”.

Turning to `Cc1ccccc1-n1cc(Br)c(=O)c(Br)c1-c1c(F)cccc1F` [Compound 112], the “Test E control value class” value in experiment [1] is listed as “H (H shows the control value of more than 50%)”. In addition, the “Test G control value class” value in experiment [2] is “L (L shows the control value of 50% or less)”. The “Test B control value class” value in experiment [3] is listed as “H (H shows the control value of more than 50%)”. In experiment [4], the “Test C control value class” value was “H (H shows the control value of more than 50%)”. Further, the “Test D control value class” value in experiment [5] was “L (L shows the control value of 50% or less)”.

Consider `Cc1ccccc1-n1cc(Cl)c(=O)c(Br)c1-c1c(F)cccc1F` [Compound 113], for which the “Test E control value class” value in experiment [1] is on record as “H (H shows the control value of more than 50%)”. The “Test G control value class” value in experiment [2] is on record as “L (L shows the control value of 50% or less)”. Besides, the “Test B control value class” value in experiment [3] was “H (H shows the control value of more than 50%)”. The “Test C control value class” value in experiment [4] is recorded as “H (H shows the control value of more than 50%)”. Further, in experiment [5], the “Test D control value class” value is given as “L (L shows the control value of 50% or less)”.

For the compound `Cc1ccccc1-n1cc(Cl)c(=O)c(Cl)c1-c1c(F)cccc1F` [Compound 114], the “Test E control value class” value in experiment [1] is “H (H shows the control value of more than 50%)”. Further, the “Test G control value class” value in experiment [2] was “L (L shows the control value of 50% or less)”. The “Test B control value class” value in experiment [3] was “H (H shows the control value of more than 50%)”. In experiment [4], the “Test C control value class” value was “H (H shows the control value of more than 50%)”. Moreover, the “Test D control value class” value in experiment [5] is “L (L shows the control value of 50% or less)”.

With `CC(C)Cn1cc(Br)c(=O)c(Cl)c1-c1c(F)cc(F)cc1F` [Compound 115], the “Test E control value class” value in experiment [1] is listed as “H (H shows the control value of more than 50%)”. Also, in experiment [2], the “Test G control value class” value is “H (H shows the control value of more than 50%)”. Moreover, in experiment [3], the “Test B control value class” value is recorded as “H (H shows the control value of more than 50%)”. For the same compound, the “Test C control value class” value in experiment [4] was “H (H shows the control value of more than 50%)”. Besides, the “Test D control value class” value in experiment [5] is recorded as “H (H shows the control value of more than 50%)”.

Turning to `O=c1c(Br)cn(-c2cccc(Br)c2)c(-c2c(F)cc(F)cc2F)c1Br` [Compound 118], the “Test E control value class” value in experiment [1] is reported as “L (L shows the control value of 50% or less)”. Further, in experiment [2], the “Test G control value class” value is reported as “L (L shows the control value of 50% or less)”. Moreover, in experiment [3], the “Test B control value class” value is on record as “L (L shows the control value of 50% or less)”. Further, in experiment [4], the “Test C control value class” value is “H (H shows the control value of more than 50%)”. In addition, the “Test D control value class” value in experiment [5] is “L (L shows the control value of 50% or less)”.

With `O=c1c(Cl)cn(-c2cccc(Br)c2)c(-c2c(F)cc(F)cc2F)c1Br` [Compound 119], the “Test E control value class” value in experiment [1] is on record as “L (L shows the control value of 50% or less)”. The “Test G control value class” value in experiment [2] was “L (L shows the control value of 50% or less)”. Moreover, in experiment [3], the “Test B control value class” value is “L (L shows the control value of 50% or less)”. In addition, the “Test C control value class” value in experiment [4] is listed as “H (H shows the control value of more than 50%)”. Also, the “Test D control value class” value in experiment [5] was “L (L shows the control value of 50% or less)”.

On to `O=c1c(Cl)cn(-c2cccc(Br)c2)c(-c2c(F)cc(F)cc2F)c1Cl` [Compound 120], for which the “Test E control value class” value in experiment [1] is listed as “H (H shows the control value of more than 50%)”. Also, in experiment [2], the “Test G control value class” value is “L (L shows the control value of 50% or less)”. Also, the “Test B control value class” value in experiment [3] is given as “H (H shows the control value of more than 50%)”. In addition, the “Test C control value class” value in experiment [4] is on record as “H (H shows the control value of more than 50%)”. Also, in experiment [5], the “Test D control value class” value was “L (L shows the control value of 50% or less)”.

Turning to `O=c1c(Cl)cn(CC2CCCCC2)c(-c2c(F)cc(F)cc2F)c1F` [Compound 121], in experiment [1], the “Test E control value class” value is reported as “H (H shows the control value of more than 50%)”. Moreover, in experiment [2], the “Test G control value class” value is on record as “L (L shows the control value of 50% or less)”. Also, the “Test B control value class” value in experiment [3] is “L (L shows the control value of 50% or less)”. The “Test C control value class” value in experiment [4] is given as “H (H shows the control value of more than 50%)”. In experiment [5], the “Test D control value class” value was “L (L shows the control value of 50% or less)”.

For `O=c1c(Cl)cn(CC2CCCCC2)c(-c2c(F)cc(F)cc2F)c1Br` [Compound 123], the “Test E control value class” value in experiment [1] is recorded as “H (H shows the control value of more than 50%)”. Besides, the “Test G control value class” value in experiment [2] was “H (H shows the control value of more than 50%)”. The “Test B control value class” value in experiment [3] is given as “H (H shows the control value of more than 50%)”. Moreover, the “Test C control value class” value in experiment [4] is reported as “H (H shows the control value of more than 50%)”. In addition, the “Test D control value class” value in experiment [5] is on record as “L (L shows the control value of 50% or less)”.

Consider `O=c1c(Br)cn(CC2CCCCC2)c(-c2c(F)cc(F)cc2F)c1Cl` [Compound 124], for which the “Test E control value class” value in experiment [1] is “L (L shows the control value of 50% or less)”. Moreover, the “Test G control value class” value in experiment [2] is given as “L (L shows the control value of 50% or less)”. The “Test B control value class” value in experiment [3] is given as “L (L shows the control value of 50% or less)”. Moreover, in experiment [4], the “Test C control value class” value is recorded as “H (H shows the control value of more than 50%)”. For the same compound, the “Test D control value class” value in experiment [5] was “L (L shows the control value of 50% or less)”.

As to `O=c1c(Br)cn(-c2ccon2)c(-c2c(F)cc(F)cc2F)c1Cl` [Compound 126], the “Test E control value class” value in experiment [1] is listed as “H (H shows the control value of more than 50%)”. Also, the “Test G control value class” value in experiment [2] is “L (L shows the control value of 50% or less)”. In addition, the “Test B control value class” value in experiment [3] was “H (H shows the control value of more than 50%)”. For the same compound, the “Test C control value class” value in experiment [4] was “H (H shows the control value of more than 50%)”. Also, in experiment [5], the “Test D control value class” value is reported as “L (L shows the control value of 50% or less)”.

As to `O=c1c(Br)cn(-c2ccon2)c(-c2c(F)cc(F)cc2F)c1Br` [Compound 127], the “Test E control value class” value in experiment [1] is on record as “H (H shows the control value of more than 50%)”. Also, the “Test G control value class” value in experiment [2] was “L (L shows the control value of 50% or less)”. The “Test B control value class” value in experiment [3] is “H (H shows the control value of more than 50%)”. In addition, the “Test C control value class” value in experiment [4] is “H (H shows the control value of more than 50%)”. Besides, the “Test D control value class” value in experiment [5] is reported as “L (L shows the control value of 50% or less)”.

On to `O=c1c(Cl)cn(-c2ccon2)c(-c2c(F)cc(F)cc2F)c1Br` [Compound 129], for which, in experiment [1], the “Test E control value class” value was “H (H shows the control value of more than 50%)”. The “Test G control value class” value in experiment [2] was “L (L shows the control value of 50% or less)”. In addition, the “Test B control value class” value in experiment [3] is “H (H shows the control value of more than 50%)”. Further, in experiment [4], the “Test C control value class” value is on record as “H (H shows the control value of more than 50%)”. For the same compound, the “Test D control value class” value in experiment [5] was “L (L shows the control value of 50% or less)”.

As to `COc1cc(F)c(-c2c(Br)c(=O)c(Br)cn2-c2ccon2)c(F)c1` [Compound 130], the “Test E control value class” value in experiment [1] is “H (H shows the control value of more than 50%)”. Also, the “Test G control value class” value in experiment [2] is “L (L shows the control value of 50% or less)”. In experiment [3], the “Test B control value class” value is on record as “H (H shows the control value of more than 50%)”. In experiment [4], the “Test C control value class” value is on record as “H (H shows the control value of more than 50%)”. Further, the “Test D control value class” value in experiment [5] was “L (L shows the control value of 50% or less)”.

As to `COc1cc(F)c(-c2c(Cl)c(=O)c(Br)cn2-c2ccon2)c(F)c1` [Compound 131], in experiment [1], the “Test E control value class” value was “H (H shows the control value of more than 50%)”. The “Test G control value class” value in experiment [2] is “L (L shows the control value of 50% or less)”. In experiment [3], the “Test B control value class” value is on record as “H (H shows the control value of more than 50%)”. For the same compound, the “Test C control value class” value in experiment [4] is on record as “H (H shows the control value of more than 50%)”. Besides, the “Test D control value class” value in experiment [5] is on record as “L (L shows the control value of 50% or less)”.

`COc1cc(F)c(-c2c(Br)c(=O)c(Br)cn2CC(C)C)c(F)c1` [Compound 133]: the “Test E control value class” value in experiment [1] is listed as “H (H shows the control value of more than 50%)”. Besides, the “Test G control value class” value in experiment [2] was “L (L shows the control value of 50% or less)”. Besides, in experiment [3], the “Test B control value class” value is reported as “H (H shows the control value of more than 50%)”. The “Test C control value class” value in experiment [4] was “H (H shows the control value of more than 50%)”. Besides, in experiment [5], the “Test D control value class” value is recorded as “L (L shows the control value of 50% or less)”.
